Reference: PubChem BioAssay AID1645887 (National Center for Advancing Translational Sciences (NCATS), 2021)
Where “and” joins values, the source holds several entries; their conditions need not be identical. Equal values may be shown once. The whole screen tested about 16,000 compounds, of which about 40 (0.2%) were called active. Another 1% or so got no clear call; they are omitted. Calls come from the whole dose curve; as a rule, active = well fitted activation curve with a large enough effect; inconclusive = small, poorly fitted or top-dose-only effect, or another doubt; inactive = no such curve, though single readings can be large or run the other way. The list shows a part of the results.

What follows are molecules tested against Rap guanine nucleotide exchange factor 4 (Homo sapiens) (UniProt Q8WZA2) (assay: Validation qHTS for agonist of cAMP-regulated guanine nucleotide exchange factor 4 (EPAC2)). Conditions: EPAC2 Rap1B BODIPY-GDP exchange, fluorescence; activation: stronger effect = higher value.
UniProt Q8WZA2, sequence (Q8WZA2 whole entry, looked up): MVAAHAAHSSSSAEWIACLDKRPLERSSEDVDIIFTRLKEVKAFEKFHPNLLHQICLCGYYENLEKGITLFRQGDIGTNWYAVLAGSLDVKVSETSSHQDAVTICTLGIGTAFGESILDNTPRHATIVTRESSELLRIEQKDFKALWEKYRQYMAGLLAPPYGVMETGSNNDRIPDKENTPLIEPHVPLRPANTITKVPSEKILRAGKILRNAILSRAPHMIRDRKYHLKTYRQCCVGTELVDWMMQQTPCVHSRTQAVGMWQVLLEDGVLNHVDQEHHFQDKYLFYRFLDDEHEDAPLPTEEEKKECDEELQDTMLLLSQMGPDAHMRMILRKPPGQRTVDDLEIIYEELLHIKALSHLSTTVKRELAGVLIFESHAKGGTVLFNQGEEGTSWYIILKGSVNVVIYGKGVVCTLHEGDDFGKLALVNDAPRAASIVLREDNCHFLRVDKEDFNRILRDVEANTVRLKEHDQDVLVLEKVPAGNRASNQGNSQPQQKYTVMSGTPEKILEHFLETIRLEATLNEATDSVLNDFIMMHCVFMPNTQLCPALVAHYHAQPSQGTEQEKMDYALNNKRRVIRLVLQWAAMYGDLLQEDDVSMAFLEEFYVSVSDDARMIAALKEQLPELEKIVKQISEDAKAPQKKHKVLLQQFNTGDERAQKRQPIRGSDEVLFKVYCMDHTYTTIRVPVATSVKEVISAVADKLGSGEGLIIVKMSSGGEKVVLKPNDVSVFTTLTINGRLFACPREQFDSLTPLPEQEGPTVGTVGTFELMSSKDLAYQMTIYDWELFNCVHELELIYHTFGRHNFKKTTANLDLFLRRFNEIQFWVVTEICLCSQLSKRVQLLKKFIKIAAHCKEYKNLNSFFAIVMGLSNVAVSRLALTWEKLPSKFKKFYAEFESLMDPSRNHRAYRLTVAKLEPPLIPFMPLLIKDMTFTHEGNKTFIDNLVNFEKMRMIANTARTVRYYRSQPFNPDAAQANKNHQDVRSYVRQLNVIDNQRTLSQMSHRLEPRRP
Outline: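 Signal normalized against 6.5 mM cAMP as agonist control. Mix of EPAC2 (100 nM), RAP1B-BODIPY-GDP (250 nM) and GDP (50 uM) was read kinetically at 480/540 nm, every 5 min over 30 min, after 5 min room-temperature incubation with compound.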
% is set by controls: 0 for no effect and ±100 for the full control effect.
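Note: exchange makes BODIPY-GDP fluorescence drop when released from Rap1B; series mostly up to about 150 µM.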

activation, inactive:
CC(C)C1=CC2=CC[C@@H]3[C@](C)(CCC[C@@]3(C)C(=O)O)[C@H]2CC1 1.84%, COc1ccccc1CNc1cc(-c2ccccc2Cl)ncn1 9.1%, CN(C)c1ncc2nc(-c3cccs3)c(=O)n(C[C@H]3CCCO3)c2n1 15.7%, CNC(=O)[C@H](Cc1c[nH]c2ccccc12)NC(=O)[C@@H](CC(=O)NO)CC(C)C -2.43% and 3.48%, CCN(CC)CCOc1ccccc1OC 5.29%, O=C(c1ccncc1)N1CCC2(CCN(Cc3ccccc3)CC2)CC1 -6.45%, CCCCCCCCN1[C@@H](CC(=O)O)c2cc(C(F)(F)F)ccc2S1(=O)=O -16.5%, CCc1nc2cc(C(=O)NC3CCS(=O)(=O)C3)cc(NC(=O)c3ccccc3OC)c2n1C (stereo not drawn) -7.21%, COC(=O)CC[C@@H](C)[C@H]1CC[C@H]2[C@@H]3CC[C@@H]4C[C@H](O)CC[C@]4(C)[C@H]3C[C@H](O)[C@]12C 5.7%, COc1cccc(-c2cc(NCCc3c[nH]c4ccc(OC)cc34)ncn2)c1 -2.38%, Cc1ncc2c(c1CNC(=O)/C=C/c1cccs1)CCN(C(=O)c1cc(C(C)C)on1)C2 -7.04%, COc1cccc(C2(CC(=O)N3CCN(c4ccccn4)CC3)CC(=O)N(C3CCCC3)C2=O)c1 (stereo not drawn) 1.04%, CN1CCN(c2nc3cc(C(F)(F)F)ccc3n3cccc23)CC1 -17.6% and 3.07% and -54.3%, CC(C)(C)C1(O)CCN2CC3c4ccccc4CCc4cccc(c43)C2C1 (stereo not drawn) 3.4%, Fc1cccc(/C=N/N=C/c2cccc(F)c2)c1 -13.7%, O=C(NO)c1ccccc1 -29.6%, O=C(O)/C=C/c1ccc(Cn2ccnc2)cc1 -1.8%, COc1ccc(-n2c(=O)c(-c3cn(C)c4ccccc34)nc3cnc(N4CCOCC4)nc32)cc1 -5.66%, COc1cccc(Cn2c(=O)c(-c3ccc(F)cc3)nc3cnc(N4CCNCC4)nc32)c1 12.8%, COc1ccc(-n2c(CNC(=O)c3cc(C(F)(F)F)ccc3Cl)nnc2SC)cc1 5.83%, N#CCCn1c(=O)c(CCc2ccccc2)nc2cnc(Oc3ccccc3)nc21 -1.47%, Cc1nc2cnc(N3CCN(C)CC3)nc2n(CCc2ccccc2)c1=O -0.378%, CN1CCN(c2cc3c(nn2)Oc2ccccc2N3C)CC1 -12.5%, COc1ccc(C(=O)C[n+]2ccccc2Cl)cc1 -32.6%, Cc1c(C(=O)N(C)Cc2cscn2)sc2ncnc(NC[C@H]3CCc4ccccc4O3)c12 -2.34%, CCCCCc1ccc(-c2cn(Cc3cccc(OC)c3)nn2)cc1 -12.6%, COc1ccccc1C1CN(Cc2c(O)cccc2OC)Cc2ccccc2O1 (stereo not drawn) 1.06%, CC(=O)O[C@H](CC(=O)O)C[N+](C)(C)C -22.4%, CCC1=C(C)CN(C(=O)NCCc2ccc(S(=O)(=O)NC(=O)NC3CCC(C)CC3)cc2)C1=O (stereo not drawn) -13.3%, c1ccc(CNc2cc(-c3ccoc3)ncn2)cc1 -11%, CCn1nc(C(=O)O)c(=O)c2cc3c(cc21)OCO3 -0.0654% [middle of 4 runs], O=C(O)C(S)C(S)C(=O)O (stereo not drawn) 4.36%, COc1cc2c(cc1OC)C(c1ccc(N)cc1)=NNC(=O)C2 -23.2% and 3.79%, CCCCN1CCC(CCC(=O)c2cc(Cl)c(N)cc2OC)CC1 -5.02% and -0.264%, Cc1onc(-c2ccccc2Cl)c1C(=O)NC1C(=O)N2C1SC(C)(C)C2C(=O)O (stereo not drawn) -14.6%, Cc1cc(/C=C/c2ccc3cc(N(C)C)ccc3[n+]2C)c(C)n1-c1ccccc1 -6.23% and -12.6%, CCOC(=O)CCCCCCCCCCCCC1C=CCC1 (stereo not drawn) -9.88%, COc1ccc(O)c(CN2CCC3(CCC(CNC(=O)c4ccco4)O3)CC2)c1 (stereo not drawn) -2.11%, COc1ccc2[nH]c(C)cc2c1 -18.5%, COc1ccc(Oc2ncc3nc(C)c(=O)n(Cc4cccc(OC)c4)c3n2)cc1 7.29%, CCCCNc1ccc(C(=O)OCCOCCOCCOCCOCCOCCOCCOCCOCCOC)cc1 -18.2%, COCCOC(=O)C1=C(C)NC(C)=C(C(=O)OC/C=C/c2ccccc2)C1c1cccc([N+](=O)[O-])c1 (stereo not drawn) 8.75%, Cc1cccc(CNc2cc(-c3cccnc3)ncn2)c1 -2.74%, O=c1cnc2cnc(Oc3ccccc3)nc2n1Cc1cccs1 -19.1%, CC1CC(O)CC(C)(C)C1 (stereo not drawn) -2.44%, CCC(C)[C@H]1O[C@]2(C=C[C@@H]1C)C[C@@H]1C[C@@H](C/C=C(\C)[C@@H](O[C@H]3C[C@H](OC)[C@@H](O[C@H]4C[C@H](OC)[C@H](NC(C)=O)[C@H](C)O4)[C@H](C)O3)[C@@H](C)/C=C/C=C3\CO[C@@H]4[C@H](O)C(C)=C[C@@H](C(=O)O1)[C@]34O)O2 (stereo partly drawn) -31.3% and -11.7%, CC(C)=CCC/C(C)=C/CC/C(C)=C/CC/C(C)=C/CC/C(C)=C/CC/C(C)=C/CC/C(C)=C/CC/C(C)=C/CC/C(C)=C/CO -1.09%, FC(F)(F)C(F)(F)C(F)(F)C(F)(F)C(F)(F)F -4.39%, O=S1(=O)OC(c2ccc(O)cc2)(c2ccc(O)cc2)c2ccccc21 7.44%, Cn1cccc1C(=O)N1CCC2(CC1)CN(c1ccncc1)C2 4.47%, CN(C)c1ncc2nc(-c3ccc(Cl)cc3)c(=O)n(Cc3cccs3)c2n1 -11.6%, CN1CCN(c2ccnc(-c3ccc(N(C)C)cc3)n2)CC1 -11.2%, O=c1cc(O)c(Cl)c[nH]1 -1.05%, c1ccc(OCc2ccc(CCCN3CCOCC3)cc2)cc1 7.43%, O=C(c1ccc(Cn2cnnn2)cc1)N1CCOc2ccc(C(O)C3CCCCC3)cc2C1 (stereo not drawn) -33.6%, CC(C)=CCCC1=CC[C@H](C(=O)O)[C@H](C(=O)O)C1 -35.5%, O=C(NCCc1nnc2n1CCN(Cc1ccc3c(c1)CCO3)CC2)c1ccco1 1.41%, COc1ccc(OC)c(-c2cc(Cl)c3c(c2)CC(CNC(=O)/C=C/c2ccccn2)O3)c1 (stereo not drawn) -0.538%, CN1CCN(c2ccnc(-c3cccnc3)n2)CC1 -6.76%, CS(=O)(=O)N1CCC[C@@]2(CCN(c3ccccc3)C2)C1 -6.24%, CN(C)c1ccc(/C=C/c2ccnc3ccc4ccccc4c23)cc1 8.22%, CN(C)c1ccc(CCC2C=Cc3ccccc32)cc1 (stereo not drawn) -22.4%, Cc1cc(C)c(/C=C2\C(=O)Nc3ccccc32)[nH]1 0.966% and -438%, CN/C(=C\[N+](=O)[O-])NCCSCc1csc(CN(C)C)n1 -3.95%, O=C(NOC[C@H](O)CO)c1ccc(F)c(F)c1Nc1ccc(I)cc1F -10.6%, COc1ccc(-n2c(=O)c(-c3ccc(Cl)cc3)nc3cnc(N4CCNCC4)nc32)cc1 7.69%, Cc1cnc(SCc2ccccn2)nc1C1CCCN(C(=O)c2cc3ccccc3oc2=O)C1 (stereo not drawn) 2.25%, COc1ccc(OC)c(CN2CCCC(c3nc(C)ncc3-c3ccc(F)cc3)C2)c1 (stereo not drawn) -6.7%, O=C1CC2(CCCC2)CC(=O)N1CCCCN1CCN(c2ncccn2)CC1 -6.84% and 10.2% and -1.09%, CCCC(=O)NCCc1c2n(c3ccc(OC)cc13)CCCc1ccccc1-2 -31.7%, COc1ccc(N2CCN(C(=O)c3cc(NC(C)=O)c4c(c3)ncn4CCc3ccccn3)CC2)cc1 6.07%, COc1ccccc1CN1[C@@H](CC(=O)O)c2ccccc2S1(=O)=O -19.4%, Cc1cc2c(cc1Cl)N(C(=O)Nc1ccnc3ccccc13)CC2 -31.4%, C=CC[N+]1([C@H]2C[C@H]3[C@@H]4CC[C@H]5C[C@H](OC(C)=O)[C@@H](N6CCCCC6)C[C@]5(C)[C@H]4CC[C@]3(C)[C@H]2OC(=O)CC)CCCCC1 -13.9%, Cc1cn(C2CCC(CO)O2)c(=O)[nH]c1=O (stereo not drawn) -2.95%, c1ccc2c(NCCN3CCOCC3)nc(-c3ccc4c(c3)OCO4)nc2c1 -11.8%, CCCS(=O)(=O)NCc1c(C)ncc2c1CCN(C(=O)c1cccc(-c3ccccc3F)c1)C2 12.4%, O=c1cc(-c2ccccc2O)oc2c1ccc1ccccc12 3.37%, CC(=O)NCCNc1ncncc1-c1ccc(N(C)C)cc1 -17.1%, COc1cc2c(Cc3c4c5c(cc(OC)c(OC)c5c5c(OC)c(OC)ccc35)CCN4C)c3c4c(cc(OC)c(OC)c4c2cc1OC)CCN3C 5.77%, Cc1ccc(CNc2ncnc3sc(C(=O)N4CCCC(C(N)=O)C4)c(C)c23)o1 (stereo not drawn) -7.73%, COc1ccc(-c2nc3cnc(N4CCNCC4)nc3n(-c3ccc(OC)cc3)c2=O)cc1 -4.17%, O=C1c2ccccc2C(=O)c2c(O)ccc(O)c21 15.3%
